# Experimental data as given in PubChem BioAssay AID686978 (National Center for Advancing Translational Sciences (NCATS), 2013).
# Among all 420,000 compounds or so, about 64,000 (15%) were called active. Inconclusive results, whose numbers are uncertain, are shown with a selection of clear calls. Calls come from the whole dose curve; as a rule, active = well fitted inhibition curve with a large enough effect; inconclusive = small, poorly fitted or top-dose-only effect; inactive = flat fitted curve, though single readings scatter. No potency is given beside an inconclusive call; the fits are too rough.
# Assay: qHTS for Inhibitors of human tyrosyl-DNA phosphodiesterase 1 (TDP1): qHTS in cells in absence of CPT; note: nearly all actives have a fitted effect of over 55% in size
# Details: DT40 Tdp1-/- hTDP1 cells, no CPT, ATP luminescence, 48 h; activity change, negative = growth inhibition: at 46.2 µM (top of the series) unless noted
# Outline: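 Seeded 400 DT40-hTDP1 cells/well (vehicle DMSO, no 20 nM CPT); pinned compounds; ≥48 hr at 37 °C; CellTiter-Glo luminescence as viability measure.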
# % is set by controls: 0 for no effect and ±100 for the full control effect; potency is the fitted concentration of half-maximal effect; tags give direction and shape of the fitted curve.
Structure (SMILES),Potency,"activity change, negative = growth inhibition"
Cc1cc(C)n2nc(SCC(=O)c3cc(C)n(-c4cc(C)on4)c3C)nc2n1,active: 10.3 µM,–
COc1ccc(OC)c(N(CC(=O)NCc2ccccc2)S(=O)(=O)c2ccccc2)c1,"inconclusive [inhibitor, partial curve]",–
O=C1CCN(Cc2ccccc2)CCN1[C@H](CSc1ccccc1)Cc1ccccc1,active: 20 µM,–
CSc1cccc(NC(=O)CSc2nc3ccccc3o2)c1,–,inactive: -11.7%
CCN(CCO)c1cc(Cl)nc(SC)n1,"inconclusive [inhibitor, partial curve]",–
COc1ccccc1-c1cc(C(F)(F)F)nc(S(=O)(=O)CCCC(=O)N2CCCCC2C)n1 (configuration not stated),active: 4.11 µM,–
O=C(CN1C(=O)c2cccnc2Oc2ccc(Cl)cc21)N1CCCC1,–,inactive: 14%
Cc1sc2nc(C)n(/N=C/c3ccccc3O)c(=O)c2c1C,–,inactive: -17.7%
CCN(CC)S(=O)(=O)c1ccc2c(c1)N(CC(=O)Nc1c(C)cccc1C)C(=O)CO2,–,inactive: -3.21%
O=C(Nc1ccccc1)c1ccccc1OS(=O)(=O)c1ccccc1,–,inactive: -29.8%
CCOc1ccc(NC(=O)c2sc3nc(C)nc(N4CCOCC4)c3c2C)cc1,"inconclusive [inhibitor, single point]",–
O=C(Cc1c(F)cccc1Cl)N1CCN(S(=O)(=O)c2cccs2)CC1,–,inactive: -1.01%
COc1cc(NC(=S)NC(=O)c2ccc(C(C)(C)C)cc2)ccc1NC(=O)c1cccs1,active: 18.4 µM,–
COC(=O)[C@@]1(Cc2ccc(F)cc2)[C@H]2c3cc(C(=O)N4CCCC4)n(CCSCCO)c3C[C@H]2CN1C(=O)c1ccccc1,"inconclusive [inhibitor, single point]",–
O=S(=O)(NCCc1ccccc1)c1ccc(F)cc1,"inconclusive [inhibitor, partial curve, poor fit]",–
CCC1Sc2ccc(S(=O)(=O)CCC(=O)NC3CCCCCC3)cc2NC1=O (configuration not stated),"inconclusive [inhibitor, single point]",–
COC(=O)Nc1ccc(S(=O)(=O)N2CCC(C(=O)NC3CCCCC3)CC2)cc1,"inconclusive [inhibitor, single point]",–
COC(=O)c1ccc(NC(=O)CC2C(=O)N(c3ccc(Cl)cc3)C(=O)N2Cc2cccs2)cc1 (configuration not stated),"inconclusive [inhibitor, single point]",–
CCCCCN(C(=O)CCC(=O)OCC(=O)Nc1cccc(CC)c1)c1c(N)n(CCCC)c(=O)[nH]c1=O,–,inactive: -17.3%
N#Cc1ccc(/C=C/C(=O)c2ccco2)cc1,active: 10.3 µM,–
COc1ccc(C2Nc3ccccc3C(=O)N2c2ccc(C)cc2)cc1Cn1nnc2ccccc21 (configuration not stated),"inconclusive [inhibitor, single point]",–
COc1cc(-c2nc3ccccc3c(=O)n2N)cc(OC)c1OC,"inconclusive [inhibitor, single point]",–
COc1ccccc1CCNC(=O)c1ccc2c(c1)c(C)c(C)n2C,active: 7.31 µM,–
Cc1ccc(NC(=O)C(C)c2ccc([N+](=O)[O-])cc2)cc1Cl (configuration not stated),"inconclusive [inhibitor, single point]",–

Structure (SMILES),Potency,"activity change, negative = growth inhibition"
CN(C)c1ccc(/C=C/C=C2/C=Cc3ccccc32)cc1,"inconclusive [inhibitor, partial curve]",–
CCOc1ccc(OCC)c(-c2c(=O)n(OCc3ccccc3C(=O)OC)c3ccccc3[n+]2[O-])c1,active: 13 µM,–
COc1ccc(C(C)(O)c2nc(-c3ccoc3)cs2)cc1 (configuration not stated),"inconclusive [inhibitor, single point]",–
CC1CCCN(c2ccc3nncn3n2)C1 (configuration not stated),–,inactive: 2.34%
O=C(O)c1c(-c2ccccc2)oc2ccc(O)cc12,–,inactive: -1.97%
Cc1ccc(C(C(=O)NC2CCCCC2)N(C(=O)Cc2c[nH]c3ccccc23)c2ccccc2C)o1 (configuration not stated),active: 20.6 µM,–
Cc1nc(N)ncc1-c1ccc2c(c1)OCO2,–,inactive: -22%
O=c1cc(CN2CCN(Cc3ccccc3)CC2)c2ccc(O)c(O)c2o1,active: 14.6 µM,–
COc1ccc(N(CCC(=O)O)S(=O)(=O)c2ccc(C)c(C)c2)cc1,–,inactive: -7.06%
Cc1cccc2c1N(C)C(=O)C2=O,"inconclusive [inhibitor, single point]",–
COc1ccc(NS(=O)(=O)c2cn(C)nc2C)cc1,–,inactive: -0.881%
COc1cc(C(=O)OCc2ccc(C)cc2)cc(NC(=O)c2cccs2)c1OC,"inconclusive [inhibitor, single point]",–
Cc1ccc(-c2csc(NC(=O)CCNC(=O)c3ccco3)n2)cc1,"inconclusive [inhibitor, single point]",–
CC1CCN(c2nnc(N3CCC(C)CC3)c3ccccc23)CC1,"inconclusive [inhibitor, single point]",–
COc1cc(OC)cc(C(=O)NNC(=O)c2cc3c(s2)CCCC3)c1,"inconclusive [inhibitor, single point]",–
CSc1ccc(S(=O)(=O)Nc2ccc(N3CCOCC3)c(Cl)c2)cc1,"inconclusive [inhibitor, partial curve, poor fit]",–
COc1cccc(CNC(=O)CCCC(=O)Nc2cccc([N+](=O)[O-])c2)c1,–,inactive: -1.7%
CCOC(=O)c1sc2ccccc2c1S(=O)(=O)Nc1ccc(N(C)C)cc1,"inconclusive [inhibitor, single point]",–
CCCC(=O)N1CCCC(c2cc(C(=O)Nc3ccccc3)no2)C1 (configuration not stated),"inconclusive [inhibitor, partial curve]",–
O=C(N/N=C/c1ccc(Cl)cc1)Nc1ccccc1,active: 8.2 µM,–
Cc1cc(C(=O)CSc2ccccc2)cc(C)c1O,–,inactive: -27.3%
Cc1ccccc1CSc1ccc(S(=O)(=O)N2CCCC2)cn1,"inconclusive [inhibitor, single point]",–
CC[C@@]12C(=O)N(c3ccc(C)cc3)C(=O)N1[C@H](c1ccc(Br)cc1)[C@@H]1C(=O)N(C(C)(C)C)C(=O)[C@@H]12,"inconclusive [inhibitor, partial curve, poor fit]",–
Cc1ccc(-c2nnn(CC(=O)N(c3ccc(F)cc3)C(C(=O)NC3CCCC3)c3ccco3)n2)o1 (configuration not stated),"inconclusive [inhibitor, partial curve]",–

Structure (SMILES),Potency,"activity change, negative = growth inhibition"
CCN1C(=O)[C@@H]2[C@@H]3CN(S(=O)(=O)c4ccccc4C)[C@@H](c4ccc(Cl)cc4)[C@@H]3C(=O)C[C@@H]2C1=O,"inconclusive [inhibitor, single point]",–
CC(C)(O)c1[nH]c2cc(F)ccc2c1C(C)(C)O,–,inactive: -25.1%
CCn1c(SCC(=O)Nc2ccc3c(c2)OCCO3)nnc1-c1ccncc1,–,inactive: -7.98%
CCS(=O)(=O)Nc1cccc(-c2cc(-c3ccccc3)c3cc(C)ccc3n2)c1,"inconclusive [inhibitor, single point]",–
Cc1cc(C)c(C#N)c(SCc2nc3ccccc3c(=O)[nH]2)n1,"inconclusive [inhibitor, partial curve]",–
O=C(NCC(=O)N1CCN(C/C=C/c2ccccc2)CC1)c1ccc(Br)cc1,active: 8.2 µM,–
Clc1cccc(Cl)c1CSc1nnc(-c2ccncc2)s1,"inconclusive [inhibitor, single point]",–
Cc1nc2c(=O)n(-c3ccc(F)cc3F)nc(C)c2s1,–,inactive: -4.58%
O=c1[nH]c(=O)n(Cc2ccccc2)c2c1C(C(F)(F)F)(C(F)(F)F)N=C(c1ccco1)N2,"inconclusive [inhibitor, single point]",–
CCc1nnc(NC(=O)CN2CCN(c3nc(-c4ccccc4)cs3)CC2)s1,"inconclusive [inhibitor, single point]",–
O=C(NCC1OCCCN1S(=O)(=O)c1cc(F)ccc1F)C(=O)NC1CCCCCC1 (configuration not stated),–,inactive: -20.5%
O=C(NCc1nnc2c(C(F)(F)F)cc(Cl)cn12)c1ccc2c(c1)OCO2,–,inactive: -24.3%
CC1CCC(=O)N(CCSc2ccccc2)CC1 (configuration not stated),"inconclusive [inhibitor, single point]",–
COC(=O)c1ccc(OCC(O)Cn2nnc3ccccc32)cc1 (configuration not stated),"inconclusive [inhibitor, single point]",–
COc1ccccc1NC(=O)CCCOc1cc(=O)n(C)c2ccccc12,active: 20.6 µM,–
COc1ccc(-c2cnn(C3CCS(=O)(=O)C3)c2N)cc1 (configuration not stated),–,inactive: -22.9%
Cc1cc(C)c(CN2CCC(n3nccc3NC(=O)c3ccccc3Cl)CC2)cc1C,"inconclusive [inhibitor, single point]",–
Cn1nc([N+](=O)[O-])c(C(C#N)c2nc3ccccc3n2C)c(Cl)c1=O (configuration not stated),active: 23.1 µM,–
Cc1ccc2nc(-c3ccco3)c(Cc3cccc(F)c3)n2c1,"inconclusive [inhibitor, single point]",–
CCOC(=O)C1=C(C)C2C3C(=O)N(c4ccccc4C)C(=O)C3C1(C)C1C(=O)N(c3ccccc3C)C(=O)C21 (configuration not stated),"inconclusive [inhibitor, full curve, poor fit]",–
COc1ccc(S(=O)(=O)N2CCOCC2)cc1NC(=O)c1cccc(-n2cccc2)c1,"inconclusive [inhibitor, single point]",–
Cc1nnc(CN(C)Cc2cn[nH]c2-c2ccc(-c3ccccc3)cc2)o1,–,inactive: -6.06%
O=C(CC1N=C2c3ccccc3N=C(SCC(=O)Nc3cccc(C(F)(F)F)c3)N2C1=O)NCc1cccs1 (configuration not stated),"inconclusive [inhibitor, single point]",–
CSc1ccc(CN2CCC(n3nccc3NC(=O)CCCc3ccccc3)CC2)cc1,"inconclusive [inhibitor, single point]",–
